This passage reports binding signal results from PMC12136788.

To fix the notation:
T1: UNK ZnF1-3 (human, UniProt Q9C0B0 31-174)
T1 sequence: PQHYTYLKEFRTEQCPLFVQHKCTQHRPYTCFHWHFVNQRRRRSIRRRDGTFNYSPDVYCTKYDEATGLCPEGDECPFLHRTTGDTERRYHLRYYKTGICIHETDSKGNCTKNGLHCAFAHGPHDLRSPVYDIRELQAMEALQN

B1: chr16:37877144:37877145:+_ENSMUSG00000034158_ENSMUST00000078717|perfect_dup|motif|central (ssRNA)
RNA: GGGAGUUCUACAGUCCGACGAUCAUUUGCUAAUUCUGGUGGGAUUUCUUUAAUGAAGUUUCCUCCAAGGUAUAAACAUUCGGAACUCCGCAAGUUCUCGAUCUCGGCGGGGAUGCUCUGCAGCUGGUUGCCGCCCAGGCUGAGCAACAGAGGAUUGAGCAUCA
B2: 15276215_15276606_5794_CDS_ENSG00000074181_ENST00000263388|human|control|control (ssRNA)
RNA: GGGAGUUCUACAGUCCGACGAUCGAUGAGCUCUUCCACCAUGCCCUCUACUGCCAGGCGGGCCGCCAGGAUCAGUGCCGUUGAGCCAUCUGCCAUGCGGGCAUCCAAGUCUGUAGAGCGGUUUCGGAUGAGAAUCUGGAAGACCAACAGAGGAUUGAGCAUCA
B3: chr12:8945443:8945444:+_ENSMUSG00000020585_ENSMUST00000020909|mus_mus|FALSE|FALSE (ssRNA)
RNA: GGGAGUUCUACAGUCCGACGAUCUGGAAACGUACAAAUGAGAAGCAUGCAACCAUCAUCUUCCACAGUCAAGUCAAACUGCUAUUUCUCUCUCUCUCCUGUUUCAUAGAGCUGGAAACUGCAGGUGUUAUACCCAACCUAUUCCAACAGAGGAUUGAGCAUCA
B4: chr7:135124741:135124742:+_ENSMUSG00000030795_ENSMUST00000077609|mus_mus|FALSE|FALSE (ssRNA)
RNA: GGGAGUUCUACAGUCCGACGAUCAGAGCCUCCUGGUCCCCCUCCUGGGCCAUCUGGCUUAGGUGCCUUACACUGGUUGCAUUCAUUUCUCCAAGAGAAGUUCAUGUUCUCACAUGUAGGAUUAGGACACUUCCAGUCUCCAGCCAACAGAGGAUUGAGCAUCA
B5: chr1:220276048:220276049:+_ENSG00000067704_ENST00000302637|hu_hu|hu_hu_hu_mus_True|78_108 (ssRNA)
RNA: GGGAGUUCUACAGUCCGACGAUCGCAAACAGCUUCAUUGGCGGGAAUUGUCCAAGGUUGUGUGGUCCAAACUAAAACGCUAACAGGGGAUGAGGCAUCUGUAAGAGACUCCAACUUCGGAGGAGGUCUCAGGAGGGGGAAUCUCAACAGAGGAUUGAGCAUCA
B6: 57110128_57110248_3118_3pUTR_ENSMUSG00000025085_ENSMUST00000111529|mouse|control|control (ssRNA)
RNA: GGGAGUUCUACAGUCCGACGAUCGGCUGGGAAUCUGUUGCUCUGUGUUACUGCAGGUGUGGCAGACAGCUGGUCGCUUUAGUCCUUCAGAAGGAAUUUCUGCAUUUUGUGCUGAGUGGUCAUUGGGGGUGAAUCCAAGUGCUUCAACAGAGGAUUGAGCAUCA
B7: chr8:95500983:95500984:-_ENSG00000164944_ENST00000437199|hu_hu|hu_hu_hu_mus_True|1_78 (ssRNA)
RNA: GGGAGUUCUACAGUCCGACGAUCAGAACACAUCUAUCGAGUAAAGGACCGUACAUGGACGACCUCUCCACUGCCUCCACUAACAAACUUUCCUCUCGAGCCUCCACUGCCGCUAUUUGUACUAGCCCAGGACGGUCCCAAGUCCAACAGAGGAUUGAGCAUCA
B8: 60553095_60555315_1633_CDS_ENSMUSG00000026014_ENSMUST00000140485|mouse|control|control (ssRNA)
RNA: GGGAGUUCUACAGUCCGACGAUCCUGAUGCAGGGUCCUUGCAUCAUCACAGCAAAGGUACUUGAUAUACUGAGACUUCUUCUGGAUCUGUGGGUGCUUUAAUGCCAGGCAGCAGUCUGUGGGUGCUUUGUAUUUGUUCCGAUACAACAGAGGAUUGAGCAUCA
B9: chr18:35732044:35732045:+_ENSMUSG00000037236_ENSMUST00000166793|perfect_dup|FALSE|FALSE (ssRNA)
RNA: GGGAGUUCUACAGUCCGACGAUCGAUUUGGGGCAAAUUCUCAGGAGUAAUCUUGUCCUCUGGAUAACGACUCAGUUCAUCUAAGUCUCUAGCAGACAGACCAAAGCUGGCCAAAAUGUUACUGGCCUGGUCUGCAUCUCCACGCAACAGAGGAUUGAGCAUCA
B10: 92600466_92600665_606_CDS_ENSG00000165934_ENST00000298875|human|control|control (ssRNA)
RNA: GGGAGUUCUACAGUCCGACGAUCCUGUAUUUUAUCAAAGGCUGCAUCCACAUCAUCUAAUGUAAAGAGUGUAAAAUCUUCUGUAUUGUGUCGAGACUGAUAAAGAUCAUACAUGAACAUCUGUCCCAUUUUAUAAACAGGAAUCAACAGAGGAUUGAGCAUCA
B11: chr10:33214929:33214930:-_ENSG00000150093_ENST00000302278|hu_hu|hu_hu_hu_mus_True|18_108 (ssRNA)
RNA: GGGAGUUCUACAGUCCGACGAUCAACAAGUUCAUUAAAAAACUCUCCUCUGUCAGUAAGACUAAGCACAUUUUUGUAGCUAAAUGGGCUGGUGCAGUUUUGUUCACUUGUACAAGGGUUCCUGAGCUUUGCUGGGGUUGUGCUCAACAGAGGAUUGAGCAUCA
B12: chr7:75932113:75932114:+_ENSG00000106211_ENST00000248553|hu_hu|hu_hu_hu_mus_False|78_88 (ssRNA)
RNA: GGGAGUUCUACAGUCCGACGAUCCUGCGACCACUCAUCGGGCAACCGGGGCAGCCCGAAGGCCUGGUCGAAGAGGCGGCUGUGUGCAGGGUACCAGUCCCGGAAUGGUUCCCAGCUCGGGCUCCGCAGCAGCGAGAAGGGCACCAACAGAGGAUUGAGCAUCA
B13: chr1:39494564:39494565:+_ENSG00000168653_ENST00000372967|hu_hu|hu_hu_hu_mus_True|28_68 (ssRNA)
RNA: GGGAGUUCUACAGUCCGACGAUCAUGCAUUCGCCUCAUCGUUUUGUACCGAAGCAAGCACUCUUCGAAAUCAUCAUACUCUAUCUUGCACUCCUUUUUCGCCCGGGUAUAACCGAUCCCGUGUGCACACUCUAUCCACUCUUUCAACAGAGGAUUGAGCAUCA
B14: chr15:64980993:64980994:-_ENSG00000180304_ENST00000326005|hu_mus|FALSE|FALSE (ssRNA)
RNA: GGGAGUUCUACAGUCCGACGAUCAAACCAUAAACAUCACAUCUGGCCGAGAGGGGACACAGGGAUGACCUGGACGCACAAUCUCAAAGCCCAAGAAGCUGAACGUCUUCAGGAGUGGAGCUCUGUCUUCCCGGCCCUUCCUGACAACAGAGGAUUGAGCAUCA
B15: chr11:77336104:77336105:-_ENSG00000074201_ENST00000525064|hu_mus|hu_hu_hu_mus_False|8_108 (ssRNA)
RNA: GGGAGUUCUACAGUCCGACGAUCCUCGCACAUUGCAGUGAACAUCGCCUCCAAUGCUGACUUAUCACUGGGCACAAAUCGAAAUUCAGAAAUGGGUUCAACAUCAUCAUUGUCUUCCUCAUCUUCAUCAUCAGCAAGUUCUUUCAACAGAGGAUUGAGCAUCA
B16: 68598220_68598340_1625_CDS_ENSG00000184939_ENST00000398253|human|control|control (ssRNA)
RNA: GGGAGUUCUACAGUCCGACGAUCCUCUCCAGUGUGGGUUCUCUCAUGUUGAGUAAGCGAUGAGCGUCGACUAAAGGCUUCUCCACACUCAUUACAUUCAUAGGGUUUCUCUCCAGUAUGAAUUCUGUGAUGCUCUAUGAAACUCAACAGAGGAUUGAGCAUCA
B17: 32336899_32338655_989_CDS_ENSMUSG00000027665_ENSMUST00000108243|mouse|control|control (ssRNA)
RNA: GGGAGUUCUACAGUCCGACGAUCCCUCCCCAGCAUUAUACAGCUUCUUAUGUACUUGUACUGACUCAGAGGGUACUUUUCCAGGAAGUAUUCGUCACAGCCACACACUUUCAGAAUAUACUUGCCCUGAUAUUCUAAGACACACAACAGAGGAUUGAGCAUCA
B18: chr11:70698419:70698420:+_ENSMUSG00000020817_ENSMUST00000076270|mus_hu|FALSE|FALSE (ssRNA)
RNA: GGGAGUUCUACAGUCCGACGAUCUUUCAUAACAGCCUGAAGUGAAGCAACUUCUUCUCUCCACUGUCUUUUCACUUCAUCUAUAGCUUCUUGCUUGGUGUUCUCAGAGACUGUGGCAAUCGCCUUAAUAUUCUCCAUCUCUGCCAACAGAGGAUUGAGCAUCA
B19: chr11:60965468:60965469:-_ENSMUSG00000042506_ENSMUST00000041683|mus_hu|FALSE|FALSE (ssRNA)
RNA: GGGAGUUCUACAGUCCGACGAUCGUCUCCAACCACAGCACAGUCAUUGGAAUUUUUUUCUUCAUUUUUAUUUUCAAACUUACAGUAAACAAAACAAUCACUUAAAUUGUCAAAAGAACAGCAAUUUUACACAAUGAAGAGCAUCAACAGAGGAUUGAGCAUCA
B20: chr10:33190432:33190433:-_ENSG00000150093_ENST00000302278|hu_mus|hu_hu_hu_mus_True|8_78 (ssRNA)
RNA: GGGAGUUCUACAGUCCGACGAUCUACAUUUUCCAAACCUGCAUGUGAAUAAAACCCUGGCAAUAUUGCCCCAAAACUACCCUACUGUGACUAAGAUGCUGCUGCUGUGAGCUUGGUGUUGCAAAAUUUUGCACGGGAGGAUUCCAACAGAGGAUUGAGCAUCA
B21: chr17:63010574:63010575:-_ENSG00000120063_ENST00000439174|hu_mus|motif|central (ssRNA)
RNA: GGGAGUUCUACAGUCCGACGAUCGAAGCAUUCCACCAGAAACUUUUGGACGUCUCUUAAGCAGUGGGGGUCCCCUUCAAAUUCGGGGAAAUAGUCUUUGAUGCUAACAACUUGCACUUUCUCCUCGAGCAAGUCUGUCUUGUUCAACAGAGGAUUGAGCAUCA
B22: chrX:77158196:77158197:+_ENSG00000131174_ENST00000481445|hu_hu|motif|central (ssRNA)
RNA: GGGAGUUCUACAGUCCGACGAUCUCCGACUUGUGUUGCUACAUAUGUCCAUGUAACAAUACAGAAAGUGGCUCCACGGGCGGAUACAGCAUUACCGUAUUUGUCAUGAAAAUCAGGUGUACGUUUCUGGUGGCUCUGCCUUGCCAACAGAGGAUUGAGCAUCA

This is one part of the list.

The test deals with T1, UNK ZnF1-3. The experiment in a line: nsRBNS (natural sequence RNA bind-n-seq); RBNS binding buffer (assumed for nsRBNS): 25 mM Tris pH 7.5, 150 mM KCl, 3 mM MgCl2, 0.01% Triton X-100, 500 ug/ml BSA, 20 U/ml SUPERase-In, 4 C; UNK is unkempt and MSI1 is Musashi-1; names of the RNAs are library labels; protein concentration not given here; high values mean tight binding.
B1 yielded a binding signal of 0.89 enrichment R. On to B2, for which the binding signal worked out at 1.28 enrichment R. To B3 belongs 1.1 enrichment R; to B4, 0.775 enrichment R; to B5, 1.64 enrichment R.

For the molecule B6, the binding signal came to 0.617 enrichment R. The molecule B7 displayed a binding signal of 1.3 enrichment R. Turning to B8, the binding signal turned out to be 0.741 enrichment R. The value for B9 was 0.399 enrichment R; that for B10 was 1.01 enrichment R. The value for B11 was 1.34 enrichment R; that for B12 was 1.22 enrichment R; that for B13 was 0.701 enrichment R. B14: the binding signal worked out at 1.27 enrichment R.

In turn, B15 gave a binding signal of 0.953 enrichment R. Molecule B16 returned a binding signal of 0.54 enrichment R.

Turning to B17, the binding signal was 1.39 enrichment R. Turning to B18, the binding signal was 0.273 enrichment R.

B19: the binding signal is 1.32 enrichment R. For B20, the binding signal stood at 1.33 enrichment R. On to B21, for which the binding signal is 0.43 enrichment R.

B22 had a binding signal of 0.681 enrichment R.
